# Reference: PubChem BioAssay AID624417 (National Center for Advancing Translational Sciences (NCATS), 2012)
# Hit rate of the full screen: of about 410,000 compounds, about 6,400 (1.6%) were called active. Inconclusive means that the source gave no clear call. Such entries were picked first, then a sample of the others. Calls come from the whole dose curve; as a rule, active = well fitted inhibition curve with a large enough effect; inconclusive = small, poorly fitted or top-dose-only effect; inactive = no such curve, though single readings can be large or run the other way. Potencies of inconclusive entries are left out as doubtful fits.
# Molecular target: Glucagon-like peptide 1 receptor (Homo sapiens) (UniProt P43220)
# Sequence of UniProt P43220 (P43220 whole entry, looked up): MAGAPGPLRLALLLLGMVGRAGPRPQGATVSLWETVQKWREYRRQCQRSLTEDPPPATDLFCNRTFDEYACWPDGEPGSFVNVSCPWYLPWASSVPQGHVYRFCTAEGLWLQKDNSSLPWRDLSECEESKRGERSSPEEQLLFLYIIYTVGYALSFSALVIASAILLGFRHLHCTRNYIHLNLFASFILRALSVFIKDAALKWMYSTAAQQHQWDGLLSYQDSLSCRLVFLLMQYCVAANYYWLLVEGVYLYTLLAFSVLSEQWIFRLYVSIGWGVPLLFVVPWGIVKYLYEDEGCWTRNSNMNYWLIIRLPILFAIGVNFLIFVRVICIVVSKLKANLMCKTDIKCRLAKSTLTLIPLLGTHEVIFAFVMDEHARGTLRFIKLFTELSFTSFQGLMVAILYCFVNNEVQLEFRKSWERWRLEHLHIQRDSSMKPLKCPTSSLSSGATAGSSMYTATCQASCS
# Experiment: qHTS of GLP-1 Receptor Inverse Agonists (Inhibition Mode); note: nearly all actives have a fitted effect of over 55% in size
# Settings: HEK293 GLP-1R CRE-luciferase, luminescence, 24 h, GLP-1R form is constitutively active; series mostly up to 38.3 µM
# How it was run: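 Inverse agonists were sought by their lowering of basal cAMP reporter luciferase output in HEK293 cells stably carrying constitutively active human GLP-1R, after 24 h compound treatment.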
# Potency is the fitted concentration of half-maximal effect; tags give direction and shape of the fitted curve.
row,SMILES,Potency
1,COc1ccc(/C=N/N2CCN(Cc3ccccc3)CC2)cc1,"inconclusive [inhibitor, single point]"
2,COCCN(C(=S)Nc1cccc(C)c1C)C(C)c1ccco1 (configuration not stated),"inconclusive [inhibitor, single point]"
3,CCc1ccc(NC(=O)CSc2nnc(-c3nonc3NC(C)=O)n2-c2ccccc2)cc1,"inconclusive [inhibitor, partial curve, poor fit]"
4,O=[N+]([O-])C1=C(Nc2cccc3ccccc23)CS(=O)(=O)C1,"inconclusive [inhibitor, full curve, poor fit]"
5,Cc1onc(-c2ccccc2Cl)c1C(=O)NCc1nc(-c2ccccc2)no1,"inconclusive [inhibitor, single point]"
6,Cc1ccc(S(=O)(=O)N2CCC(C(=O)OC(C)C(=O)N(C)c3ccccc3)CC2)cc1C (configuration not stated),"inconclusive [inhibitor, single point]"
7,COc1ccccc1COC(=O)c1cccc(S(=O)(=O)N2CCCC2)c1,"inconclusive [inhibitor, single point]"
8,COc1cc(NC(=O)c2ccnn2C)c(OC)cc1Cl,inactive
9,CC1CCN(C(=O)CSc2nc3c(c(=O)n2C)SCC3)CC1,inactive
10,O=C(Nc1ccccc1N1CCN(C(=O)c2ccccc2)CC1)c1ccc(Cl)cc1,"inconclusive [inhibitor, partial curve, poor fit]"
11,CCN(CC)c1ccc2nc3ccc(N)cc3[n+](-c3ccccc3)c2c1,"inconclusive [inhibitor, full curve]"
12,Cc1cccc(-c2cc(C(=O)Nc3ccncc3)c3ccccc3n2)c1,"inconclusive [inhibitor, partial curve, poor fit]"
13,CCCOc1ccccc1Cn1c(=O)oc2ccc(C)cc21,"inconclusive [inhibitor, single point]"
14,COc1ccc(-n2c(SCC(=O)NCC3CCCO3)nc3ccccc32)cc1 (configuration not stated),"inconclusive [inhibitor, partial curve]"
15,C[C@H]1CN([C@@H](C)CO)C(=O)c2c(c3ccccc3n2C)-c2ccccc2CO[C@H]1CN(C)Cc1cccc(F)c1,"inconclusive [inhibitor, single point]"
16,[O-]/C(=C(\C(=S)Nc1ccc(SC(F)F)cc1)[n+]1ccccc1)c1ccc(Cl)cc1Cl,active: 1.12 µM
17,COc1cccc(C(=O)Nc2ccc3c(c2)CCCN3C(=O)c2cccs2)c1OC,"inconclusive [inhibitor, single point]"
18,CCc1ccc(-n2c(=O)c3cccnc3n2CC(=O)N(CC)c2cccc(C)c2)cc1,"inconclusive [inhibitor, single point]"
19,O=C(Nc1nccs1)c1ccccc1N=Cc1ccccc1,"inconclusive [inhibitor, partial curve, poor fit]"
20,CCOc1ccc(S(=O)(=O)n2nc(C)c(S(=O)(=O)N3CCCCCC3)c2C)cc1,inactive
21,Cc1ccc(-n2ncc3c(NCCc4ccccc4)ncnc32)cc1,"inconclusive [inhibitor, single point]"

row,SMILES,Potency
1,CCCCNCc1cc(Br)c(OCc2cccs2)c(OC)c1,"inconclusive [inhibitor, partial curve, poor fit]"
2,CN1CCN(c2ncc3c(n2)CCN(Cc2ccccc2Cl)C3)CC1,"inconclusive [inhibitor, partial curve, poor fit]"
3,CCOc1ccc(NC(=O)CC2C(=O)N(c3ccc(OC)c(Cl)c3)C(=S)N2C2CC2)cc1 (configuration not stated),"inconclusive [inhibitor, partial curve, poor fit]"
4,COc1cccc(C(=O)NC2CCN(CC(=O)NCc3ccccc3OC)CC2)c1,"inconclusive [inhibitor, full curve, poor fit]"
5,NS(=O)(=O)c1ccc(NC(=O)Nc2ccc(Cl)cc2)cc1,"inconclusive [inhibitor, partial curve, poor fit]"
6,CCN(CC)C(=O)Cn1c(SCC(=O)Nc2ccc(C)c(C)c2)nc2ccccc21,inactive
7,COc1ccccc1CN1C[C@@H]2C[C@@H](c3ccc(Cl)cc3)N3CCC[C@@]23C1=O,"inconclusive [inhibitor, partial curve, poor fit]"
8,Cc1ccccc1C(=O)Nc1nnc(-c2ccco2)o1,"inconclusive [inhibitor, single point]"
9,N/C(=N\OC(=O)c1cccc(F)c1)c1ccccn1,inactive
10,Cc1ccc(C2(C)NC(=O)N(CC(=O)N(Cc3ccccc3)C(C)(C)C)C2=O)cc1 (configuration not stated),"inconclusive [inhibitor, single point]"
11,CCOC(=O)c1c(Nc2ccccc2)nnc(-c2ccccc2)c1-c1ccccc1,"inconclusive [inhibitor, single point]"
12,CC1Cc2ccccc2N1C(=O)CN(C)CC(=O)Nc1ccc(OC(F)(F)F)cc1 (configuration not stated),"inconclusive [inhibitor, single point]"
13,CCOc1ccccc1NC(=O)C(OC(=O)c1cc(C)oc1C)c1ccccc1 (configuration not stated),"inconclusive [inhibitor, partial curve, poor fit]"
14,Cc1cccc(OCCCn2c(CO)nc3ccccc32)c1,"inconclusive [inhibitor, partial curve, poor fit]"
15,CN1c2ccccc2-c2nc3ccccc3n2C1c1ccco1 (configuration not stated),"inconclusive [inhibitor, single point]"
16,CN(C)C(=O)/C(=C/c1cn(-c2ccccc2)nc1-c1cccc([N+](=O)[O-])c1)NC(=O)c1ccccc1,inactive
17,O=C(CN1CCN(S(=O)(=O)N2CCCCC2)CC1)Nc1ccc(Br)cc1,"inconclusive [inhibitor, partial curve, poor fit]"
18,Cc1ccc(S(=O)(=O)N2CCCCC2)cc1NC(=O)C1CCN(C(=O)OC(C)(C)C)CC1,"inconclusive [inhibitor, single point]"
19,OC(COc1ccc2c(c1)CCC2)CN1CCN(c2ccccc2F)CC1 (configuration not stated),"inconclusive [inhibitor, single point]"
20,CCOC(=O)C1(CC2CCCCO2)CCN(Cc2nccn2-c2cccc(C)c2)CC1 (configuration not stated),active: 10 µM
21,CCOc1ccc(CN2CCN(CC3=Cc4cccc(OC)c4OC3)CC2CCO)cc1 (configuration not stated),"inconclusive [inhibitor, partial curve, poor fit]"

row,SMILES,Potency
1,Clc1cccc(Cl)c1C[n+]1ccc2ccccc2c1,"inconclusive [inhibitor, partial curve]"
2,COc1cc(NC(=O)CCCSc2nc(-c3ccco3)cc(C(F)(F)F)n2)cc(OC)c1OC,"inconclusive [inhibitor, partial curve, poor fit]"
3,O=[N+]([O-])c1cccc(CSc2cccc[n+]2[O-])c1,inactive
4,COC(=O)c1sccc1N/N=C/c1cccc(Oc2ccccc2)c1,"inconclusive [inhibitor, single point]"
5,COCCCNC(=O)CC(NS(=O)(=O)c1ccc(Cl)cc1)c1ccco1 (configuration not stated),inactive
6,Cc1cccc(C)c1OCC(O)CN1CCN(c2ccccc2)CC1 (configuration not stated),"inconclusive [inhibitor, partial curve, poor fit]"
7,O=C(NNc1ccccc1[N+](=O)[O-])Nc1ccc(Cl)c(Cl)c1,"inconclusive [inhibitor, partial curve, poor fit]"
8,CC(C)(C)C(=O)Cn1ncc(Br)c(Br)c1=O,"inconclusive [inhibitor, single point]"
9,COc1cccc(Cn2c(SCc3ccc(C(=O)N4CCC(C)CC4)cc3)nc3ccncc32)c1,"inconclusive [inhibitor, single point]"
10,Cc1ccc(C23CC4CC(CC(C(N)=O)(C4)C2)C3)cc1,"inconclusive [inhibitor, single point]"
11,COc1ccc(CCN(C)C(=O)C2CCCN(C3CCN(Cc4ccccc4)CC3)C2)cc1OC (configuration not stated),inactive
12,CCCC(O)(c1ccccc1)C(CN1CCOCC1)c1ccccc1 (configuration not stated),"inconclusive [inhibitor, partial curve, poor fit]"
13,CCN(CC)c1ccc(/C=N\NC(N)=O)cc1,inactive
14,O=C(CCc1nc2ccccc2c(=O)[nH]1)Nc1cc(Cl)ccc1N1CCCCC1,"inconclusive [inhibitor, partial curve, poor fit]"
15,COCCn1c(C)cc(C(=O)CSc2nc3ccccc3s2)c1C,"inconclusive [inhibitor, partial curve, poor fit]"
16,COc1ccc(C(=O)c2sc3nc(C)cc(-c4cccs4)c3c2N)cc1,"inconclusive [inhibitor, partial curve, poor fit]"
17,O=C(Nc1ccc(Cl)cc1)Nc1csc([N+](=O)[O-])c1,"inconclusive [inhibitor, partial curve, poor fit]"
18,COc1ccc(N2CCN(C(CNS(=O)(=O)c3c(C)cc(C)cc3C)c3ccco3)CC2)cc1 (configuration not stated),"inconclusive [inhibitor, partial curve, poor fit]"
19,CN1Cc2c(N3CCOCC3)nc3sc(C(=O)c4ccc(Br)cc4)c(N)c3c2CC1(C)C,"inconclusive [inhibitor, partial curve, poor fit]"
20,O=C(N/C=N/O)C(c1ccccc1)c1ncc(C(F)(F)F)cc1Cl (configuration not stated),"inconclusive [inhibitor, single point]"
